Results taken from PubChem BioAssay AID1240 (Sanford-Burnham Center for Chemical Genomics, 2008).
“And” between values parts separate entries of the source, which are not always exact repeats. Identical values can stand only once. Among all 50,000 compounds or so, about 800 (1.6%) showed an effect of 50% or more. The list shows a part of the results.

Each molecule was assayed against Bcl-2-like protein 10 (Homo sapiens) (UniProt Q9HD36) (assay: TR3 peptide-Bcl-B binding displacers, biochemical primary FP assay, phenotype converters (AID 1240;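 note: 0% = Bcl-B with tracer peptide and DMSO and 100% = tracer peptide lacking Bcl-B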)). Conditions: GST-Bcl-B / FITC-TR3 peptide fluorescence polarization; stronger effect = higher value; compound at 3.75 mg/L.
Sequence of UniProt Q9HD36 (Q9HD36 whole entry, looked up): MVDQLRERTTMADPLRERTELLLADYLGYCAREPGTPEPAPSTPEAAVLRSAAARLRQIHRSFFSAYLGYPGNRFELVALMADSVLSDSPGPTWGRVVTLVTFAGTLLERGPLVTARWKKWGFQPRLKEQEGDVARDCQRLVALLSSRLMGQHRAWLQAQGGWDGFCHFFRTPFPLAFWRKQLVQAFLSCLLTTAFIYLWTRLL

SMILES | displacement
O=[N+]([O-])c1ccc(S(=O)(=O)Nc2ccccc2Br)cc1 | 0.7%
COc1ccc(N2C(=O)Cn3c2nc2c3c(=O)n(C)c(=O)n2C)cc1 | 61.6%
CCCN(CCC)C(=O)C(CC)c1ccccc1 (stereo not given) | 8.5%
O=C(Nc1cccc(O)c1)c1cccc(NC(=O)c2ccc(Cl)c(Cl)c2)c1 | -4.2%
COc1cccc(NC2=NC3(CCCCC3)N=C(N)N2)c1 | -8.5%
COc1ccccc1C/C(N)=N/OC(=O)c1ccc(I)cc1 | 10.8%
O=C(NNS(=O)(=O)c1cccc([N+](=O)[O-])c1)c1ccccc1O | 8%
Cc1ccccc1C(=O)NC(NC(=O)c1ccccc1C)c1ccc(Br)cc1 | -7.2%
CC(C)OC(=O)C1C(=O)CC(C)(O)C(C(=O)OC(C)C)C1c1ccc2c(c1)OCO2 (stereo not given) | 6%
O=C1S/C(=C/c2ccc(Cl)c(Cl)c2)C(=O)N1c1ccccc1 | 17.9%
O=C(O)CCCN1C(=O)/C(=C/c2ccccc2Cl)SC1=S | 22.3%
COc1ccc(C)cc1NC(=O)CN(Cc1ccccc1)S(=O)(=O)c1ccc(OC)c(OC)c1 | -46.5%
O=C(NN1C(=O)CSC1=S)c1ccccc1Br | -16.8%
CCOc1ccc(N(CC(=O)NCCCOC)S(=O)(=O)c2ccc(SC)cc2)cc1 | -10.9%
COC(=O)c1ccc(COc2ccc3c(-c4ccccc4)cc(=O)oc3c2C)cc1 | -1.3%
C[C@H](NC(=O)CCc1ccccc1)c1ccccc1 | 13.4%
O=C1OC(c2ccc(Cl)cc2)=C/C1=C\c1ccc2c(c1)OCO2 | -19.4%
CC(C)Oc1cc2oc(=O)cc(-c3ccccc3)c2cc1Cl | 3.7%
COc1ccc(-n2c(=O)c3c4c(sc3n3c(SCc5ccccc5)nnc23)CCC4)cc1 | -7%
O=C(O)c1cc(-c2ccc(/C=C/c3cc(C(F)(F)F)[nH]c(=O)n3)o2)ccc1Cl | -14.2%
CC(=O)N1c2ccccc2CC(N2CCCCC2)c2ccccc21 (stereo not given) | 12.7%
CCOC(=O)c1ccccc1NC(=O)c1ccc(N(C)S(=O)(=O)c2ccccc2)cc1 | -1.9%

SMILES | displacement
O=C(N/N=C/c1ccccc1Br)C(=O)N/N=C/c1ccccc1Br | 1%
CCOC(=O)c1c(NC(=O)c2c(Cl)ccc(Cl)c2OC)sc2c1CCCC2 | -1.7%
CC1(C)Cc2c(sc3nc(SCC(N)=O)n(Cc4ccccc4)c(=O)c23)CO1 | -3.4%
N#C/C(=C/c1ccc(C(=O)O)cc1)C(=O)Nc1cccc(Br)c1 | -2.2%
COc1cc2ccccc2cc1C(=O)Nc1ccc2c(c1)C(=O)N(C)C2=O | 8.1%
Cc1ccc(OCC(=O)N2CCN(c3ccccn3)CC2)c(C)c1 | -6.5%
COc1ccc(OC)c(S(=O)(=O)N2CCOCC2)c1 | 1.6%
C=CCN1C(=O)/C(=C/c2ccc(O)c(OC)c2)S/C1=N\c1nnc(CC)s1 | 0%
Cc1c(N(C(=O)c2cccc(Cl)c2)C(C)C)c(=O)n(-c2ccccc2)n1C | 4.2%
O=C(c1ccc(Cl)c(Cl)c1)N1CCN(c2ccc([N+](=O)[O-])c3cccnc23)CC1 | 12.6%
COc1ccc(C(=O)N2CCN(S(C)(=O)=O)CC2)cc1 | 12.9%
COc1ccc(/C=C2/C=C(c3ccc(OC)c(OC)c3)OC2=O)cc1OC | 189%
Cc1ccc(C(=O)Nc2ccccc2C(=O)NCc2ccco2)cc1 | -7%
CC(C)c1ccc(NC(=O)C(=O)NCc2ccccn2)cc1 | -9.6%
Cc1ccc(C)c(S(=O)(=O)NCc2ccccn2)c1 | 5.2%
O=C(COc1ccc(Cl)cc1Br)NNC(=O)c1ccccc1O | 3.2%
Cc1ccccc1N1CCN(C(=S)c2ccccc2)CC1 | 13%
COC(=O)c1cc(NC(=O)c2ccc(Cl)c([N+](=O)[O-])c2)cc(C(=O)OC)c1 | 2.6%
COC(=O)c1sc2nccc(N(C)C)c2c1N | -9.2%
O=C(Nc1cc(Cl)cc(Cl)c1)c1ccc(S(=O)(=O)N2CCCCC2)cc1 | 8.2%
O=S(=O)(CCSc1ccc(Cl)cc1)OCC(F)(F)F | 16.4%
CCOC(=O)c1csc(NC(=O)c2ccc(-c3ccccc3)cc2)n1 | 9.4%

SMILES | displacement
O=C(NCCN1CCOCC1)c1cnn2c1NC(c1cccs1)CC2C(F)(F)F (stereo not given) | -1.7%
CC(=O)N1C(=O)NC2CC1NC(=O)N2C(C)=O | 13.5%
OC1(c2ccccc2)c2ccccc2-c2ncccc21 (stereo not given) | 16.8%
COc1cc(C(=O)N2c3ccccc3CC2C)cc(OC)c1OC (stereo not given) | 10.3%
C(=C(\c1ccccc1)c1nc2ccccc2[nH]1)/c1ccco1 | 2.2%
CCOc1ccc(C(=O)Nc2ccc(OC)cc2OC)cc1OCC | 3%
O=C(c1ccncc1)N1CCN(Cc2ccc(F)cc2)CC1 | -5%
Cc1ccc(NC(=O)CC(C(=O)O)C2CCCO2)cc1 (stereo not given) | -7.5%
c1ccc(OCCCN2CCCCC2)cc1 | -7.2%
O=C(Nc1ccc(Br)cc1)c1ccccc1C(F)(F)F | 23.2%
O=[N+]([O-])c1ccc(Sc2c(-c3ccccc3)nc3sccn23)cc1 | 1.4%
CCOc1cc(C(=S)N2CCOCC2)cc(Br)c1O | 11%
Cc1ccc(OCc2nnc(NC(=O)c3ccccc3C)s2)c(C)c1 | -0.9%
COc1ccc(/C=N/N=C2/SC(CC(=O)O)C(=O)N2c2ccc(O)cc2)cc1 (stereo not given) | 6%
Cc1ccc(S(=O)(=O)N/N=C/c2c(Cl)cccc2Cl)cc1[N+](=O)[O-] | 9.2%
O=C(CC(c1ccccc1)c1ccccc1O)N1CCNCC1 (stereo not given) | -5.3%
C=CCN1C(=O)/C(=C\c2ccccc2I)C(=O)NC1=S | -3.2%
CCNC(=O)CC1S/C(=N\N=C(C)C)NC1=O (stereo not given) | -24.4%
CC1(C)CC(=O)C2=C(C1)NC1=C(C(=O)CC(C)(C)C1)C2c1c(Cl)cccc1Cl | 10%
CCOC(=O)NC(NC(=S)Nc1ccccc1I)C(Cl)(Cl)Cl (stereo not given) | -7.6%
O=C(COc1ccccc1)NCC1CCCO1 (stereo not given) | 4.6%
O=C(O[C@H]1CCN(C(=O)c2ccccc2)[C@@H]2CCCC[C@H]12)c1ccccc1 | -3%

SMILES | displacement
O=C1CC(Nc2ccc(N3CCOCC3)cc2)C(=O)N1c1cccc(Cl)c1 (stereo not given) | 1.4%
COc1cc(Nc2cc(C)c(C#N)c3nc4ccccc4n23)cc(OC)c1OC | 4.6%
Cc1nn(C(=O)c2ccccc2)c(C)c1Sc1ccc([N+](=O)[O-])cc1 | 2.4%
CCOc1cc(C(=O)NCC2CCCO2)cc(OCC)c1OCC (stereo not given) | 0.4%
Cc1cc(/C=C2/NC(=S)NC2=O)c(C)n1-c1cccnc1 | -12.2%
O=C(c1ccccc1)c1ccc(C(=O)N2CCN(C(=O)c3ccc(C(=O)c4ccccc4)cc3)CC2)cc1 | 6.7%
COc1ccc(CN2CCN(S(C)(=O)=O)CC2)cc1Br | -11.8%
O=C(Nc1ccc(Oc2ccc(NC(=O)c3ccco3)cc2)cc1)c1ccco1 | 3.5%
CCOCCOC(=O)C1=C(C)NC(=O)NC1c1ccc(O)cc1 (stereo not given) | -2.1%
O=C1NC(=S)N/C1=C/c1cc(Br)c(O)c(I)c1 | -87.1%
CCOC(=O)c1sc2c(c1NC(=O)c1ccc3c(c1)OCCO3)CCCC2 | -3.8%
COc1ccc(/C(C)=N/n2cnnc2)cc1 | 13.8%
COc1ccc2ccccc2c1C1NC(=O)NC(C)=C1C(=O)Nc1cc(Cl)ccc1C (stereo not given) | 14%
COC(=O)c1ccc(/C=C/C(=O)c2cccc(OC)c2)cc1 | 2.4%
CC(=O)c1ccc2c(c1)C1C=CCC1C(c1ccc([N+](=O)[O-])cc1)N2 (stereo not given) | 11.3%
CCOc1ccccc1C(=O)Nc1cc(C)ccn1 | 8.1%
Cc1cc2nc(Nc3nc4ccccc4c(=O)[nH]3)nc(C)c2cc1C | 5.6%
CCOc1ccc(/C=C2/SC(NC(C)=O)=NC2=O)cc1OCC | 54.6%
O=C1C2ON(c3ccccc3)C(c3ccc(OC(F)F)cc3)C2C(=O)N1c1ccccc1C(F)(F)F (stereo not given) | 3.9%
COc1cc([N+](=O)[O-])ccc1NC(=O)COc1cc(C)ccc1C(C)(C)C | 4.4%
CC1=NN(C(=O)C(C)C)C(O)(c2ccc(Br)cc2)C1 (stereo not given) | 7.4%
COc1ccc(N/C=C(/C2=CC(=O)C=CC2=O)[N+](=O)[O-])cc1 | 16.6%

SMILES | displacement
COc1ccccc1NC(=O)C(=O)N/N=C/c1cccc(OC)c1OC | 4.8%
O=C(NC12CC3CC(CC(C3)C1)C2)c1cc2ccccc2o1 | -1.3%
CCCCOc1ccc(C(=O)Nc2cccc(NC(=O)c3ccccc3Cl)c2)cc1 | 7.1%
O=C(O)CCC(=O)Nc1sc2c(c1C(=O)Nc1ccc(Cl)cc1)CCCCC2 | 20%
O=C(c1cccc(F)c1)N1CCN(c2ccc([N+](=O)[O-])cc2)CC1 | 118%
O=C(Cc1cccs1)NCc1cccnc1 | 11.7%
COc1ccc(-c2cc(C(=O)Nc3nc4ccc(S(C)(=O)=O)cc4s3)c3ccccc3n2)cc1OC | 5%
CN(C1=NS(=O)(=O)c2cc([N+](=O)[O-])ccc21)c1ccccc1 | 7.9%
COc1ccccc1N1CCN(C(=O)c2ccc(N(C)C)cc2)CC1 | 12.4%
Cc1cccc(NC(=O)/C=C(\C(=O)O)c2ccc(Cl)cc2)c1C | 6%
Cc1ccc(C(=O)Nc2ccc(C(=O)O)cc2)cc1S(=O)(=O)NC1CCCCC1 | -11.1%
CCOC(=O)c1[nH]c2c([N+](=O)[O-])cc(C)cc2c1C | 10.6%
Cc1cc(Cl)cc(C)c1OCCCCCCn1ccnc1 | 6.8%
CCOC(=O)C1CCN(C(=O)COc2ccc3ccccc3c2)CC1 | 5.9%
CCOC(=O)C1CCN(C(=O)Cc2ccccc2OC)CC1 | -4%
COc1ccc(CCNS(=O)(=O)c2ccccc2[N+](=O)[O-])cc1 | -9.9%
CON1C(=O)CN(C(C)=O)C1c1ccc(Cl)cc1Cl (stereo not given) | 4.8%
CCOC(=O)C1=C(C)N=c2s/c(=C\c3ccc4c(c3)OCO4)c(=O)n2C1c1ccc(F)cc1 (stereo not given) | 29%
COc1ccc(/C=C2\SC(=S)N(Nc3ccccc3)C2=O)cc1OC | 7.1%
COc1ccc(/C=c2/sc3nc(-c4ccc(C(C)(C)C)cc4)nn3c2=O)cc1 | 11.3%
COc1ccc(CCNC2CC(=O)N(CCc3ccccc3)C2=O)cc1 (stereo not given) | -3.1%
COc1ccc(-c2n[nH]c(=S)o2)cc1 | 14.9% and -0.1%
